Screen size: about 350,000 compounds; about 31,000 (8.9%) were called active. This list was built around the results that the source calls inconclusive (neither active nor inactive); the mix of calls is not that of the screen. Calls follow the shape of the dose curve; as a rule, active = well fitted inhibition curve with a large enough effect; inconclusive = small, poorly fitted or top-dose-only effect; inactive = no such curve, though single readings can be large or run the other way. A potency beside an inconclusive call is a rough fit, not a confirmed value.
What follows are compounds tested against Histone-lysine N-methyltransferase EHMT2 (Homo sapiens) (UniProt Q96KQ7) (assay: qHTS Assay for Inhibitors of Histone Lysine Methyltransferase G9a). Details: G9a H3K9 monomethylation, AlphaScreen, 2 h; activity, negative = inhibition: at 59 µM (top of the series) unless noted.
Sequence of UniProt Q96KQ7 (Q96KQ7 whole entry, looked up): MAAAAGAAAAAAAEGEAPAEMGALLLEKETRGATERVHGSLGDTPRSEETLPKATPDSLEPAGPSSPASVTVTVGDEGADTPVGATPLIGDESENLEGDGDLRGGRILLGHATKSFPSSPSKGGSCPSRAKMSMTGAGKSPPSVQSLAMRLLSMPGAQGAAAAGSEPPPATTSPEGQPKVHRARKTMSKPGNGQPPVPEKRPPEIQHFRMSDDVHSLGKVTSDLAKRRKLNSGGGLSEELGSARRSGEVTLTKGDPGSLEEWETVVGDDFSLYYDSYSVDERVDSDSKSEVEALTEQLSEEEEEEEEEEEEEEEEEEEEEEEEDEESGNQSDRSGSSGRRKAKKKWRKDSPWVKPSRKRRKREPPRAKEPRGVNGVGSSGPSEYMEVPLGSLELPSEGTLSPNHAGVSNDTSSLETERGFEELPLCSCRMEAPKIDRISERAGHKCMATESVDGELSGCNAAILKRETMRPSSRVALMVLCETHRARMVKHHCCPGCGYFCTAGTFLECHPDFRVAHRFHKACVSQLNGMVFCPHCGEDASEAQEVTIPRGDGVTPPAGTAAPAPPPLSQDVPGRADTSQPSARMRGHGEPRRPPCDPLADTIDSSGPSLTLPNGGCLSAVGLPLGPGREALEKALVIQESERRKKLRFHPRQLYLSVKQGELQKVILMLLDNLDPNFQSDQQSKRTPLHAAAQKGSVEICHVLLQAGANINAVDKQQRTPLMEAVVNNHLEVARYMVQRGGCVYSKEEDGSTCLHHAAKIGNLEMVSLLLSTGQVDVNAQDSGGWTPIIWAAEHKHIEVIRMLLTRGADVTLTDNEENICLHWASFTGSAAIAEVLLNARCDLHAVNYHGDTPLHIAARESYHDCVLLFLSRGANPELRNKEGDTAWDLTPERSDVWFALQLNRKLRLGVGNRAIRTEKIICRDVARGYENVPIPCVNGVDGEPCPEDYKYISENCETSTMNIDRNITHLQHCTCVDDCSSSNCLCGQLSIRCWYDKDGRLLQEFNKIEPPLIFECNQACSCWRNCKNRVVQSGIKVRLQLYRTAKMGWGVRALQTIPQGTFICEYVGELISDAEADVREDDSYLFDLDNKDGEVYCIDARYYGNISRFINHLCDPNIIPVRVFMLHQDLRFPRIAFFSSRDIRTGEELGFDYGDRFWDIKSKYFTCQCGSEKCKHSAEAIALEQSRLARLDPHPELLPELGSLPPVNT
Summary of the method: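 Compounds were preincubated with 20 nM G9a for 15 min, after which biotinylated H3K9 peptide (500 nM) and SAM (20 uM) started a 2 h room-temperature reaction. Monomethylated product was quantified by antibody-based AlphaScreen chemiluminescence.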
% is scaled to controls: 0 for no effect and ±100 for the full control effect; potency is read from the fitted curve at half-maximal effect; tags tell the direction and shape of the fitted curve.
Also: nearly all actives have a fitted effect of over 75% in size.

| Structure (SMILES) | activity, negative = inhibition | Potency |
| --- | --- | --- |
| COc1cc2c(cc1OC)C(C)N(C(=O)c1cc3c(C)cc(C)cc3[nH]1)CC2 (configuration not stated) | inactive: 16% [at 12.7 µM] |  |
| Cc1cc(C)cc(N2C(=O)CC(Cn3nc(C)cc3C)C2=O)c1 (configuration not stated) | inactive: 47% |  |
| CCCCOC(=O)Nc1sc2c(c1C(=O)OC)CCC2 |  | inconclusive: 89.1 µM [inhibitor, single point] |
| COc1ccc(/C=C2\N=C(C)OC2=O)cc1[N+](=O)[O-] |  | inconclusive: 70.8 µM [inhibitor, partial curve] |
| COC(=O)c1ccc(-n2c(CCC(=O)O)ccc2-c2ccccc2)cc1 | inactive: -33.1% [at 2.33 µM] |  |
| COc1ccc(Cl)cc1NC(=O)NCc1ccccn1 | inactive: 71.3% [at 102 µM] |  |
| CC(=O)OCCN(CCCn1c(-c2ccncc2)nc2ccccc21)c1nc(-c2ccc(C)cc2)cs1 |  | active: 56.2 µM |
| Cc1ccc(/C=N/NC(=O)c2cc3ccccc3cc2O)o1 |  | inconclusive: 89.1 µM [inhibitor, single point] |
| CCc1cc2c(cc(C(=O)OC)n2Cc2nc(-c3ccc(C)cc3)oc2C)s1 | inactive: -24.2% |  |
| Cc1cccc(OCCOCCSc2ncccn2)c1 | inactive: 8.63% [at 12.7 µM] |  |
| CCOC(=O)C1CCN(Cc2ccc(OC)c(C)c2OC)CC1 |  | inconclusive: 31.6 µM [inhibitor, single point] |
| CC1CCC(C(C)C)C(OCC(O)CN2CCCC(C)C2)C1 (configuration not stated) | inactive: -10.9% [at 102 µM] |  |
| COCCN(C(=O)COC(=O)COc1ccc(Cl)c(C)c1)c1c(N)n(Cc2ccccc2)c(=O)[nH]c1=O |  | active: 39.8 µM |
| CCN1CCN(C(c2cccs2)C(C)NS(=O)(=O)c2ccc(F)cc2)CC1 (configuration not stated) |  | inconclusive: 14.1 µM [inhibitor, partial curve, poor fit] |
| CC(C)CCNC(=O)C(c1ccco1)N(Cc1ccccc1)C(=O)c1snc(C(N)=O)c1N (configuration not stated) |  | inconclusive: 39.8 µM [inhibitor, single point] |
| O=[N+]([O-])c1ccc(S(=O)(=O)N2CCN=C2SCc2ccc(F)cc2)cc1 | inactive: 7.36% [at 102 µM] |  |
| Cc1cc(N2C(=O)C(O)=C(C(=O)c3ccco3)C2c2cccnc2)no1 (configuration not stated) | inactive: 24.7% |  |
| O=C(/C=C/c1cccc([N+](=O)[O-])c1)NCCSCc1c(Cl)cccc1Cl |  | inconclusive: 89.1 µM [inhibitor, partial curve, poor fit] |
| CN(C)S(=O)(=O)c1ccc2c(c1)nc(CCC(=O)NCC1CCCCC1)n2C |  | inconclusive: 31.6 µM [inhibitor, single point] |
| Cc1cccc(CNC(=O)c2ccc3oc(=O)n(Cc4ccccc4)c3c2)c1 | inactive: 8.62% [at 12.7 µM] |  |
| CCCSc1ncc(Cl)c(C(=O)Nc2c(C(=O)Nc3ccc(OC)cc3)oc3ccccc23)n1 | inactive: -3.71% |  |
| O=C1C(Cl)=C(NCCN2CCOCC2)C(=O)c2ccccc21 |  | inconclusive: 89.1 µM [inhibitor, single point] |
| CCCCS(=O)CC(COc1ccc(Cl)cc1)OC(=O)c1ccccc1 (configuration not stated) |  | active: 50.1 µM |
| O=c1c(C(c2ccccc2)c2c(O)sc3ccccc3c2=O)c(O)sc2ccccc12 |  | inconclusive: 39.8 µM [inhibitor, single point] |

| Structure (SMILES) | activity, negative = inhibition | Potency |
| --- | --- | --- |
| Cc1ccc(NC(=O)C2CC(=O)N(Cc3ccccc3)C2)cc1S(=O)(=O)N1CCCCCC1 (configuration not stated) |  | inconclusive: 89.1 µM [inhibitor, single point] |
| CC(=Nc1ccccc1)C1=C(O)CCCC1=O |  | inconclusive: 39.8 µM [inhibitor, single point] |
| Cc1nnc(SCC(=O)Nc2nc(-c3ccccc3)cs2)n1N |  | inconclusive: 35.5 µM [inhibitor, partial curve, poor fit] |
| C/C(CC(=O)NCCN1CCOCC1)=N\NC(=O)c1ccncc1 |  | inconclusive: 44.7 µM [inhibitor, partial curve] |
| Cc1ccc(C(=O)CSc2nc3cccnc3n2C)cc1 | inconclusive: -73.1% [inhibitor] |  |
| CCc1nnc(NS(=O)(=O)c2ccc(N/C=C/C(=O)c3ccc(C)cc3)cc2)s1 |  | active: 39.8 µM |
| CCOC(=O)N1CCN(c2cc(=O)n(-c3cccc(C)c3)c(=O)[nH]2)CC1 |  | inconclusive: 44.7 µM [inhibitor, partial curve, poor fit] |
| Oc1cccc(N2Cc3ccccc3C2)c1 | inactive: 17.5% [at 2.33 µM] |  |
| O=C(C(c1ccccc1)N1CCOCC1)N1CCOCC1 (configuration not stated) |  | inconclusive: 17.8 µM [inhibitor, single point] |
| C/C=C\C=C/C(=O)Nc1cccc(C2=NOC3(C2)C[C@@H](C(N)=O)N(C(=O)COc2ccc(Cl)cc2)C3)c1 (some centres not stated) |  | inconclusive: 10 µM [inhibitor, single point] |
| COc1ccc(NC(=O)CN2CCCCC2)cc1 |  | inconclusive: 3.55 µM [inhibitor, partial curve, poor fit] |
| Cc1cc(C(=O)O)ccc1-n1c(C)cc(/C=C2\SC(=O)NC2=O)c1C |  | inconclusive: 89.1 µM [inhibitor, single point] |
| O=C(Nc1c2c(nn1-c1ccccc1)CS(=O)(=O)C2)c1ccccc1C(F)(F)F | inactive: -4.6% [at 102 µM] |  |
| CC(=O)OCC1=C(C(=O)O)N2C(=O)C(NC(=O)C(C)Cn3cc(Cl)cn3)C2SC1 (configuration not stated) |  | inconclusive: 50.1 µM [inhibitor, partial curve] |
| C=CCOc1ccc(/C(O)=C2\C(=O)C(=O)N(CCCOC)C2c2ccc(O)c(OC)c2)cc1 (configuration not stated) |  | inconclusive: 70.8 µM [inhibitor, single point] |
| Cc1ccc(NC(=O)CCc2nc3sc4c(c3c(=O)[nH]2)CCCC4)c(Br)c1 |  | inconclusive: 89.1 µM [inhibitor, partial curve, poor fit] |
| COc1ccc(CCNS(=O)(=O)c2ccc(-n3cnnn3)cc2)cc1OC |  | inconclusive: 79.4 µM [inhibitor, single point] |
| Cc1nnc(NC(=O)CSc2nccn2Cc2ccc(Cl)cc2)s1 | inactive: 6.12% |  |
| CCOC(=O)c1oc2ccccc2c1NC(=O)c1ccco1 |  | inconclusive: 5.62 µM [inhibitor, partial curve, poor fit] |
| COc1ccc(OCC(O)CN2CCN(CC(O)COc3ccc(OC)cc3)CC2)cc1 (configuration not stated) | inactive: -10.8% [at 102 µM] |  |
| COc1ccc(-n2c(COc3cccc(C)c3)n[nH]c2=S)cc1 | inactive: 16.9% [at 0.501 µM] |  |
| COc1ccc(N2CCN(C(=O)NCc3ccc(OC)c(Cl)c3)CC2)cc1 |  | inconclusive: 1.41 µM [inhibitor, partial curve, poor fit] |
| Cc1ccc(S(=O)(=O)NCC(=O)N(CC(=O)NCC2CCCO2)c2cccc(F)c2)cc1 (configuration not stated) | inactive: -4.98% [at 102 µM] |  |
| COc1ccc(-n2ncc(C(=O)N3CCN(c4cc(C)ccc4C)CC3)c2C2CCN(C(=O)OC(C)(C)C)CC2)cc1 | inactive: -10.3% |  |

| Structure (SMILES) | activity, negative = inhibition | Potency |
| --- | --- | --- |
| COc1ccc(CNCc2c(C(=O)O)c(C)n(Cc3ccccc3C)c2C)c(OC)c1 | inactive: -23.8% |  |
| COc1ccc2c(c1)c1c(c(=O)n(-c3ccccc3C)c(=O)n1C)n2C | inactive: -22% |  |
| CC1(C)CC(=O)C2=C(C1)OC(N)=C(C#N)C21CCN(Cc2ccccc2)CC1 |  | active: 28.2 µM |
| COc1cc2c(cc1OC)/C(=C/C(=O)c1ccc(OC)c([N+](=O)[O-])c1)NCC2 | inactive: 8.23% [at 102 µM] |  |
| Cc1occc1C(=O)NCCc1cccc(Cl)c1 |  | inconclusive: 79.4 µM [inhibitor, single point] |
| CCc1cccc(NC(=O)Nc2cccs2)c1 |  | active: 12.6 µM |
| Cc1noc(/C=C/N(C)C)c1S(=O)(=O)N1CCc2ccccc21 |  | inconclusive: 0.794 µM [inhibitor, full curve, poor fit] |
| CCOC(=O)CC(NS(=O)(=O)c1ccc(OC)c(C)c1)c1cccc([N+](=O)[O-])c1 (configuration not stated) |  | inconclusive: 10 µM [inhibitor, partial curve] |
| CSCC[C@@H](C(=O)NCc1cccs1)N1Cc2ccccc2C1=O |  | active: 50.1 µM |
| Cc1cccc(NNC(=S)Nc2c(C)cccc2C)c1 |  | active: 44.7 µM |
| CC1CN(C(=O)CN2C(=O)NC3(CCCC3)C2=O)C(=Nc2cccc(S(=O)(=O)N(C)C)c2)S1 (configuration not stated) |  | inconclusive: 89.1 µM [inhibitor, partial curve, poor fit] |
| O=C(NNc1ncnc2ccccc12)c1cccc(Cl)c1 |  | active: 79.4 µM |
| CCS(=O)(=O)c1ncc(Cl)c(C(=O)Nc2c(C(=O)Nc3cccc(C)c3)oc3ccccc23)n1 |  | inconclusive: 2 µM [inhibitor, partial curve, poor fit] |
| Cc1ccc(C(=O)/C=C/N(C)C)o1 |  | inconclusive: 1.41 µM [inhibitor, single point] |
| O=C(COc1ccccc1)N1CCN(C(=O)c2ccco2)CC1 |  | inconclusive: 25.1 µM [inhibitor, partial curve, poor fit] |
| CCc1ccccc1NC(=O)Cc1ccc(NC(=O)N2CCCCc3ccccc32)cc1 | inactive: 0.663% |  |
| COC(=O)c1sc(=S)sc1C(=O)OC |  | active: 28.2 µM |
| CCN(Cc1ccccc1)C(=O)c1cc(S(=O)(=O)N2CCOCC2)ccc1N1CCCC1 |  | inconclusive: 89.1 µM [inhibitor, partial curve, poor fit] |
| CCOC(=O)N1CCN(C(=S)NC(=O)c2ccc(F)cc2)CC1 |  | active: 28.2 µM |
| Cc1cc(C)cc(N(C(C)C(=O)NCCC2=CCCCC2)S(C)(=O)=O)c1 (configuration not stated) |  | inconclusive: 89.1 µM [inhibitor, single point] |
| COc1ccc(CNS(=O)(=O)c2ccc(-n3cnnn3)c(OC)c2)cc1 |  | active: 50.1 µM |
| Cc1cc(NC(=O)CSc2ccc3nnc(-c4ccc(Cl)cc4)n3n2)no1 |  | active: 22.4 µM |
| Cc1nc(SCc2ccccc2F)c2oc3ccccc3c2n1 | inactive: 58% |  |
| CCc1nnc(SCC(=O)Nc2cc(OC)ccc2OC)nc1CC | inactive: 5.36% |  |

From PubChem BioAssay AID504332 (National Center for Advancing Translational Sciences (NCATS), 2011)
